Data from ChEMBL document CHEMBL4888484, “Replenishing the malaria drug discovery pipeline: Screening and hit evaluation of the MMV Hit Generation Library 1 (HGL1) against asexual blood stage Plasmodium falciparum ,using a nano luciferase reporter read-out” (2022).
The campaign covered roughly 150,000 compounds. About 540 (0.36%) showed an effect of 50% or more. The list shows a part of the results.

Each compound was assayed on Plasmodium falciparum (assay: Primary screen in NF54 nanoGlo assay, in single point, at 2uM, 72h; a lower Z score goes with more inhibition). Conditions: timepoint 72 hour.
Type: functional, Erythrocyte

SMILES | % Inhibition | Z score
O=C(Nc1ncc(C2CCOCC2)s1)C1CN(C2CCCCC2)C1 | -5% | 0.49
Cc1cnn(C)c1S(=O)(=O)N[C@H]1CCOC[C@@H]1OCC1CCC1 | 10% | -1.32
Cc1nn(-c2ccc(C(C)C)cc2)c(C)c1[C@@H]1C=C[C@@H](NCc2ccccc2)C1 | -3% | 0.51
CC[C@@H](CC#N)Nc1ccc(C(F)(F)F)cn1 | -1% | 0.09
CCCS(=O)(=O)N(C)C[C@H]1CC(=O)N(CC)C1 | -13% | 2.41
COc1ccc(-c2cc(-c3nc4ccccc4[nH]3)c(-c3ccccc3)o2)cc1OC | 0% | -0.05
C[C@@]1(C(=O)NCc2ccc(F)cc2)Cn2cnc(C(=O)Nc3ccc(F)cc3Cl)c2C(=O)N1C1CC1 | -13% | 1.3
Cc1ccsc1C(=O)NC[C@H](NC(=O)c1sccc1C)C1CC1 | 7% | -0.92
O=C1CCC(C(=O)NC(Cc2ccccc2)c2nc3ccccc3o2)N1 (centres undefined) | -9% | 1.26
CN(Cc1cccnc1)Cc1cc(-c2ccccc2)cs1 | -8% | 0.9
O=C(Cc1n[nH]c(=O)c2cc(-c3ccc(F)cc3)nn12)NC1CCCC1 | -11% | 1.43
Cc1c(-c2noc(C(=O)NCC[C@H](C)N3CCCCCC3)n2)oc2c(C)cccc12 | -14% | 1.75
Nc1ccnc(Cn2c(=O)n(Cc3ccccc3)c3ccncc32)n1 | 28% | -3.14
CCN1CC[C@H](CN(C)Cc2[nH]nc(C)c2Cl)C1 | -1% | 0.12
Cc1ccc2c(c1)N[C@H](C(=O)N1CCN(c3cc(Cl)ccc3C)CC1)NS2(=O)=O | -6% | 1.2
CC[C@]1(c2nc(-c3ccncc3)no2)CCN(C(=O)OC(C)(C)C)C1 | -8% | 0.72
CC(C)(C)OC(=O)n1cc2c(c1)C(=O)CCC2 | 1% | -0.2
Cc1ccc(NC(=O)C2[C@H]3C=C[C@@]4(O3)C(C(=O)NC3CCCCC3)N(Cc3cccnc3)C(=O)[C@@H]24)cc1C (some centres undefined) | -14% | 2.13
O=C(CCn1cnc2ccccc2c1=O)N1CCC(N2C(=O)COC2=O)CC1 | -14% | 2.63
Cc1cccc(-n2nnc(-c3nc(-c4ccccn4)no3)c2N)c1C | -12% | 1.21
CC(C)N1CC[C@H](NC(=O)Nc2ccc(CC(F)(F)F)cc2)C1=O | -5% | 0.66

SMILES | % Inhibition | Z score
CC/C=C(\C)c1c(-c2ccccc2)ncn1CCCN1CCC(C(N)=O)CC1 | 2% | -0.25
NC(=O)CN1CCC(NC(=O)N2CCC[C@H]2c2cccs2)CC1 | -5% | 1.04
COCCn1cc(NC(=O)c2cccc3c2OCC3(C)C)cn1 | -9% | 1.46
CC(=O)NS(=O)(=O)c1cc(Br)ccc1Cl | -14% | 1.55
COc1cc2ccc3c(CCN(C)C(=O)c4c(F)cccc4F)cc(OC)c(OC)c3c2cc1OC | 18% | -2.8
CC(C)CCNS(=O)(=O)c1cc(-c2nc(-c3cccc(F)c3)no2)cs1 | -7% | 0.74
Cn1nc(CN(Cc2ccccc2C(F)(F)F)C2CC2)[nH]c1=O | -12% | 1.59
Cc1ccc(CNC(=O)NCc2cccc(-n3cncn3)c2)s1 | 15% | -1.85
COc1ccc(CNC(=O)N2CC[C@H](Oc3ncccc3Br)C2)cc1OC | -10% | 1.93
CC(NC1CC(=O)N(C2CC2c2ccccc2)C1)c1ccc(C(F)F)nc1 (centres undefined) | -10% | 1.15
CC[C@H](NC(=O)c1cncc(Cl)c1)C1CC(O)C1 (some centres undefined) | -5% | 0.95
COc1ccccc1N1CCN(C(=O)C2CN(C(=O)c3ccccc3)CC2c2cc(OC)c(OC)c(OC)c2)CC1 (centres undefined) | -11% | 1.75
O=C(NCc1cccc(Cl)c1)OCC(F)(F)F | 2% | -0.31
O=C(NCCc1cnn(-c2ccccc2)c1)C1CCCC(C(F)(F)F)C1 (centres undefined) | -3% | 0.53
CC[C@H]1[C@H](NC(=O)CCn2cncn2)[C@H]2CCO[C@H]21 | -19% | 1.81
O=C(c1ccc2nsnc2c1)N1CCC(n2c(=O)[nH]c3ccccc3c2=O)CC1 | -1% | 0.12
O=S(=O)(Cc1ccco1)[C@H]1CCN(S(=O)(=O)Cc2cccc(Cl)c2)C1 | -7% | 1.2
COc1cc(C(=O)NC2CCCCC2)cc2occc12 | 36% | -4.83
CN(C)c1ccccc1N(C)CCN1CCCS1(=O)=O | -10% | 0.92
O=S(=O)(Cc1c[nH]c2ccccc12)c1ccccc1 | 34% | -3.87
CC(C)n1cnc2c(-c3ccccc3)cn(CC(=O)NCc3ccco3)c2c1=O | 9% | -1.25

SMILES | % Inhibition | Z score
COc1ccc(OC)c(S(=O)(=O)N2CCCN(S(=O)(=O)c3ccccc3)CCC(=O)NCC2)c1 | 3% | -0.36
Cc1nc(-c2ccc(Cl)c(S(=O)(=O)N3CCC(C(=O)Nc4ccccc4C)CC3)c2)no1 | -12% | 1.51
CS(=O)(=O)[C@H]1CCN(S(=O)(=O)c2ccc3c(c2)OCCO3)C1 | -9% | 1.14
Cc1ccsc1[C@H]1CCN(C(=O)c2nc(C(C)C)cs2)C[C@@H]1O | 8% | -1.05
CC(C)n1cc(NC(=O)N(Cc2ccsc2)C2CCCC2)nn1 | -10% | 1.56
O=C(NCC(F)(F)F)N1CCC[C@H]1c1ccc[nH]1 | -3% | 0.27
CCCN(CC(=O)O)c1ccnc(N(C)C)n1 | -18% | 2.82
Cc1cc(NS(=O)(=O)c2cc3c(cc2Br)NC(=O)CO3)n(C)n1 | 12% | -2.06
COc1cc2c(cc1CN1CCC3(CC1)C[C@H](O)CO3)OCO2 | 7% | -1.04
COCCn1cc(CN2CCN(c3ccccn3)CC2)ccc1=O | -5% | 0.98
O=C(Cc1cccs1)N1CCC[C@@H]1CF | -12% | 1.42
Cc1ccccc1Cn1c2ccccc2c2ncn(Cc3ccc(F)cc3)c(=O)c21 | 5% | -0.62
Cc1cc(N2CCC(c3nnc(CN4CCOCC4)n3C)CC2)ncn1 | 10% | -1.31
CC(C)(C)c1ccn(C2(C(=O)O)CCN(Cc3cccc(O)c3)CC2)n1 | -18% | 2.22
Cc1csc(NC(=O)OC(C)(C)C)c1 | 1% | -0.18
Cc1ccc(S(=O)(=O)N2CCC(c3cc(C(=O)Nc4ccccc4F)[nH]n3)CC2)s1 | -6% | 1.16
Cc1cccc(-c2ncc(C(=O)NCC(C)C)c(Oc3ccc4c(c3)OCO4)n2)c1 | 10% | -1.21
CC(C)CCn1c(=O)c(-c2ccc3ccccc3n2)cc2ccccc21 | -1% | 0.07
C[C@](O)(CNS(C)(=O)=O)c1cccs1 | 0% | -0.02
CC(C)n1c(N2CCCN(C(=O)c3cccc(Br)c3)CC2)cc(=O)n(C(C)C)c1=O | 1% | -0.23
COC(=O)c1ccc(CN[C@@H](C)c2cnn(-c3cccc4ccccc34)c2C)cc1 | 7% | -0.83

SMILES | % Inhibition | Z score
Cc1nn(C)c(C)c1CC(=O)N1CCC2(CCC2)S(=O)(=O)CC1 | -5% | 0.46
Cc1cc(C)nc(N[C@@H](Cc2ccccc2)C(=O)Nc2cccc(-c3nnn(C)n3)c2)n1 | 1% | -0.09
COc1cccc(CNC(=O)N2CCN(Cc3cccc(C)c3)C(=O)[C@@H]2C)c1 | -15% | 1.84
CC(C)N(C(=O)c1ccc(CS(C)(=O)=O)o1)C(C)C | -9% | 1.22
COC1(c2nc(-c3ccsc3)no2)CCOCC1 | -7% | 1.31
C[C@@H](C(=O)N1CCN(c2ccccc2Cl)CC1)n1nc2c(cc1=O)CCC2 | 19% | -2.44
CCOC(=O)c1cc(C(=O)Nc2cccc(S(=O)(=O)N3CCOCC3)c2)nn1C | 1% | -0.18
CC(C)c1nc(CC(=O)N2CCCc3cc(Cl)ccc32)cs1 | 5% | -0.85
O=C(c1cn2c(n1)CCCC2)N1CCN2C(=O)NC[C@H]2C1 | -9% | 1.53
Cc1cc2ncc3c(n2n1)CCN(C(=O)CCc1ccccc1F)C3 | -2% | 0.31
Cc1nc(CN2CCN(C)C(=O)C2)n(C)c1C | -10% | 1.31
Cc1nnc([C@H](C)NC(=O)c2cc(Cl)c(C)c(Cl)c2)o1 | -11% | 1.94
COc1cc(/C=C/CN2CCC[C@H](CNC(=O)c3ccco3)C2)ccc1O | 8% | -1.03
CCc1nccn1C[C@H]1CC2(CCOCC2)CO1 | -10% | 0.88
O=C(Nc1ccc(F)cc1F)Nc1cccc2c(-c3ccccc3)c(C(=O)N3CCOCC3)[nH]c12 | -9% | 1.46
COc1ccc(-c2cc(C(=O)N3CC[C@@]4(CN(C)C(=O)CO4)C3)n[nH]2)cc1 | -9% | 0.88
c1nncn1Cc1noc([C@@H]2CCCO2)n1 | -4% | 0.58
CCOC(=O)c1ccc(NC(=O)N(Cc2nnc(CC)o2)C(C)C)cc1 | -5% | 0.85
O=C(NCC(F)(F)F)N1CC[C@@]2(C1)OCc1ccccc12 | -6% | 0.8
